{"source": "PubChem BioAssay AID504832", "about": "(National Center for Advancing Translational Sciences (NCATS), 2011)", "note": "Out of some 310,000 compounds screened, about 18,000 (5.8%) were called active. Inconclusive results, whose numbers are uncertain, are shown with a selection of clear calls. Calls come from the whole dose curve; as a rule, active = well fitted inhibition curve with a large enough effect; inconclusive = small, poorly fitted or top-dose-only effect, or another doubt; inactive = no such curve, though single readings can be large or run the other way. No potency is given beside an inconclusive call; the fits are too rough. % is set by controls: 0 for no effect and ±100 for the full control effect; potency is the fitted concentration of half-maximal effect; tags give direction and shape of the fitted curve.", "data": [{"assay": "Primary qHTS for delayed death inhibitors of the malarial parasite plastid, 48 hour incubation", "conditions": "P. falciparum luciferase growth in erythrocytes; series mostly up to 28.7 µM", "in_short": "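Here the parasites carry a stable luciferase gene and grow inside erythrocytes in Albumax-based RPMI medium with compound for one erythrocytic cycle. Activity is scored as loss of luminescent signal.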", "values": [{"smiles": "CC/C(=N\\NC(=S)NC(C)C)c1ccc(OC(F)F)cc1", "Potency": "inconclusive [inhibitor, single point]"}, {"smiles": "Cc1[nH]nc(-c2ccc(OCc3cnn(-c4ccccc4)c3)cc2O)c1Oc1ccc(Cl)cc1", "Potency": "active: 5.22 µM"}, {"smiles": "Cn1nccc1C(=O)OCC(=O)Nc1ccccc1", "Potency": "inactive"}, {"smiles": "O/N=C/c1cc(Cl)ccc1OCc1cccc2ccccc12", "Potency": "inactive"}, {"smiles": "O=C1/C(=C/c2cccs2)SC(=S)N1C1CCS(=O)(=O)C1", "note": "(stereo unspecified)", "Potency": "inconclusive [inhibitor, single point]"}, {"smiles": "Cc1ccc(-c2cc(C(=O)NCc3cn(C)nc3C)c3cc(Br)ccc3n2)cc1", "Potency": "active: 2.94 µM"}, {"smiles": "CCOC(=O)c1cccc(C2=CC(=O)C[C@H](c3ccc(OC)c(OC)c3)C2)c1", "Potency": "active: 10.4 µM"}, {"smiles": "COc1ccc(NC(=O)NNC(=O)CCC(=O)Nc2ccccc2Cl)cc1", "Potency": "inactive"}, {"smiles": "CS(=O)(=O)N(CC(=O)NCCSC1CCCCC1)c1cccc(F)c1", "Potency": "inconclusive [inhibitor, single point]"}, {"smiles": "O=C(N/N=C/C=C\\c1ccccc1[N+](=O)[O-])c1ccccn1", "Potency": "inactive"}, {"smiles": "Cc1cc(C)c(NS(=O)(=O)c2cccc3cccnc23)c(C)c1", "Potency": "inconclusive [inhibitor, single point]"}, {"smiles": "CNS(=O)(=O)c1cccc(C(=O)OCC(=O)Nc2ccc(Cl)cn2)c1", "Potency": "inactive"}, {"smiles": "COc1cccc(C(=O)NCCCNC(=O)c2ccccn2)c1", "Potency": "inactive"}, {"smiles": "COc1cccc(N(C(=O)c2snc(C(N)=O)c2N)C(C(=O)NCC2CCCO2)c2ccc(C)o2)c1", "note": "(stereo unspecified)", "Potency": "inconclusive [inhibitor, partial curve, poor fit]"}, {"smiles": "CCCCc1cc(=O)oc2cc(OCC(=O)N(CC)CC)c(Cl)cc12", "Potency": "inconclusive [inhibitor, partial curve, poor fit]"}, {"smiles": "CNC(=O)NC(=O)C(NC1CCCc2ccccc21)c1ccccc1", "note": "(stereo unspecified)", "Potency": "inconclusive [inhibitor, partial curve]"}, {"smiles": "CCNC(=O)C1CC(=O)N(Cc2ccc3c(c2)OCO3)C(=Nc2ccc(F)cc2)S1", "note": "(stereo unspecified)", "Potency": "inconclusive [inhibitor, single point]"}, {"smiles": "CCC1CCCCN1S(=O)(=O)c1ccc(C(=O)N(CCCN(C)C)c2nc3cc4c(cc3s2)OCO4)cc1", "note": "(stereo unspecified)", "Potency": "inconclusive [inhibitor, single point]"}, {"smiles": "O=C(CSc1nc2ccsc2c(=O)n1Cc1ccccc1)NCc1ccco1", "Potency": "inconclusive [inhibitor, partial curve]"}, {"smiles": "Cc1ccc(Cn2ccc(C3CC3)n2)cc1", "Potency": "inactive"}, {"smiles": "COc1ccccc1CC(=O)NCC(c1ccco1)N1CCCCC1", "note": "(stereo unspecified)", "Potency": "inconclusive [inhibitor, single point]"}, {"smiles": "O=C1/C(=C\\c2cccc([N+](=O)[O-])c2O)SC(=S)N1Cc1ccccc1", "Potency": "inconclusive [inhibitor, partial curve]"}, {"smiles": "Cc1cc(Br)c(S(=O)(=O)NCCN2CCOCC2)cc1C", "Potency": "inconclusive [inhibitor, partial curve, poor fit]"}, {"smiles": "COc1ccc(C(C)NC(=O)C2CCCC2)cc1OC", "note": "(stereo unspecified)", "Potency": "inconclusive [inhibitor, single point]"}, {"smiles": "CN(c1ccccc1)S(=O)(=O)c1cccc(NC(=O)Cc2n[nH]c(=O)c3ccccc23)c1", "Potency": "inconclusive [inhibitor, single point]"}, {"smiles": "CCCCn1c(SCC(=O)N2CC(=O)Nc3ccccc32)nnc1-c1ccoc1C", "Potency": "inconclusive [inhibitor, partial curve, poor fit]"}, {"smiles": "CCCCN(C(=O)c1ccc(C)o1)c1c(N)n(CCCC)c(=O)[nH]c1=O", "Potency": "inactive"}, {"smiles": "Cc1cc(C)nc(SCCN(C)C)n1", "Potency": "inactive"}, {"smiles": "C=CCC1(C#N)C(=S)NC2=C(C(=O)CC(C)(C)C2)C1c1ccc(Br)cc1", "note": "(stereo unspecified)", "Potency": "inconclusive [inhibitor, partial curve]"}, {"smiles": "CCN(CC)C(=O)Cn1c(=O)n(CCCC(=O)NCc2ccccc2)c(=O)c2sccc21", "Potency": "inactive"}, {"smiles": "Cc1[nH][nH]c(=O)c1C(c1c(C)[nH][nH]c1=O)c1cn(Cc2ccc(Cl)c(Cl)c2)c2ccccc12", "Potency": "inconclusive [inhibitor, single point]"}, {"smiles": "Cc1ccc(SCC(=O)NNC(=O)c2ccccc2)cc1C", "Potency": "inactive"}, {"smiles": "Cc1cc(C)c(S(=O)(=O)NCCSCc2ccco2)c(C)c1", "Potency": "inconclusive [inhibitor, single point]"}, {"smiles": "CC(=O)c1cccc(CN2CCC(C(=O)Nc3cccc(-c4ccn[nH]4)c3)CC2)c1", "Potency": "inconclusive [inhibitor, single point]"}, {"smiles": "COc1ccc(Cc2nnc(SCC(=O)c3c(N)n(C4CC4)c(=O)[nH]c3=O)o2)cc1", "Potency": "inconclusive [inhibitor, partial curve]"}, {"smiles": "COc1ccc(/C=C2\\SC(=S)N(CCC(=O)Nc3cccc(O)c3)C2=O)cc1", "Potency": "inactive"}, {"smiles": "Cc1cccc(C(=O)O/N=C/c2c(Cl)n(C)c3ccccc23)c1", "Potency": "inactive"}, {"smiles": "COc1ccccc1NC(=O)Cn1cnc2c(cnn2-c2ccccc2)c1=O", "Potency": "inconclusive [inhibitor, single point]"}, {"smiles": "CCCCC[n+]1ccn(C2=C([O-])c3ccccc3C(=O)/C2=N\\S(=O)(=O)c2ccccc2)c1", "Potency": "active: 2.94 µM"}, {"smiles": "Cc1ccc(NC(=O)CS(=O)CC(=O)N(CC(=O)NC2CCCC2)c2cccc(C)c2C)cc1", "note": "(stereo unspecified)", "Potency": "inconclusive [inhibitor, partial curve, poor fit]"}, {"smiles": "Cc1ccc2oc(=O)c3cnn(CC(=O)N4CCCc5ccccc54)c3c2c1", "Potency": "inactive"}, {"smiles": "O=C(O)c1ccc(N=Cc2c(O)ccc3oc4c(c23)CCCC4)cc1", "Potency": "inactive"}, {"smiles": "COc1cc(C(=O)N2CCN(c3ccccc3O)CC2)ccc1OCC(=O)N1CCOCC1", "Potency": "inconclusive [inhibitor, single point]"}, {"smiles": "CCOC(=O)C1CCN(Cc2cc(C(C)C)c(O)c(C(C)C)c2)CC1", "Potency": "inconclusive [inhibitor, full curve, poor fit]"}, {"smiles": "COc1ccc(C(=O)Nc2cccnc2)cc1", "Potency": "inactive"}, {"smiles": "O=C(O)c1sccc1Oc1ccc(NS(=O)(=O)c2ccccc2)cc1", "activity change, negative = inhibition": "inactive: 10.2% [at 0.00184 µM]"}]}]}
